The values that follow come from article PMC5733242.

Chains of the proteins cited; added tags and fusions are not shown. Lines headed by an entry give the natural chain unless they say otherwise; changes in a name come on top. A line that says so, or that is headed by a name, gives the form on record, which may keep a tag or linker.
UniProt O00571: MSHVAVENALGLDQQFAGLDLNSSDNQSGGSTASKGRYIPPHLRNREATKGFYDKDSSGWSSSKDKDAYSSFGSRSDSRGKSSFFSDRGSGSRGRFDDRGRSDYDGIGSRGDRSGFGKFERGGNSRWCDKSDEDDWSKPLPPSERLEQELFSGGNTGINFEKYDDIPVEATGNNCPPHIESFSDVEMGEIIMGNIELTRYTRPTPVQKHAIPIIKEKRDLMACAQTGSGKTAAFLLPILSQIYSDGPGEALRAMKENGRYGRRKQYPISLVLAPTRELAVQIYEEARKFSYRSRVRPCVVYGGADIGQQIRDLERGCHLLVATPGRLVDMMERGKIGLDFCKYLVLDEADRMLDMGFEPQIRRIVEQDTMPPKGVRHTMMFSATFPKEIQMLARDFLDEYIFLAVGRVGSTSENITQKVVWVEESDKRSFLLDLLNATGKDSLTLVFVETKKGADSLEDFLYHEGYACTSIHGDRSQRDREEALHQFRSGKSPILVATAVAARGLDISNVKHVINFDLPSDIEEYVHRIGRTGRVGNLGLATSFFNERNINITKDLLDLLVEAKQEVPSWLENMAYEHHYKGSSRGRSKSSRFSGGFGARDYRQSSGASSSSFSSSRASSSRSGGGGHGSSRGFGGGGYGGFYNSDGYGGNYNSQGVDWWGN
DDX3-ΔATP (O00571, form named): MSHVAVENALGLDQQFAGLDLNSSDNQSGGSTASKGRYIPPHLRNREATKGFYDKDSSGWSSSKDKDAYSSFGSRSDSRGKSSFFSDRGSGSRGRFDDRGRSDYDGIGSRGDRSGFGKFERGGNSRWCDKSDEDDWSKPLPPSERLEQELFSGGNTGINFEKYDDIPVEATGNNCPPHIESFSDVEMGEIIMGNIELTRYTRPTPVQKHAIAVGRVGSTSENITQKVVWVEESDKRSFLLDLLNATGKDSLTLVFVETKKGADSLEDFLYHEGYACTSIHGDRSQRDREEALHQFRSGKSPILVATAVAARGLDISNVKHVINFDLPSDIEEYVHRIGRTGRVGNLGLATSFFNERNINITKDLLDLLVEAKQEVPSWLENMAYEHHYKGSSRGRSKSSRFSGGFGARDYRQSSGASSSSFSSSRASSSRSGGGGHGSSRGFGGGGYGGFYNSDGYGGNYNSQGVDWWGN
UniProt Q9UKV8: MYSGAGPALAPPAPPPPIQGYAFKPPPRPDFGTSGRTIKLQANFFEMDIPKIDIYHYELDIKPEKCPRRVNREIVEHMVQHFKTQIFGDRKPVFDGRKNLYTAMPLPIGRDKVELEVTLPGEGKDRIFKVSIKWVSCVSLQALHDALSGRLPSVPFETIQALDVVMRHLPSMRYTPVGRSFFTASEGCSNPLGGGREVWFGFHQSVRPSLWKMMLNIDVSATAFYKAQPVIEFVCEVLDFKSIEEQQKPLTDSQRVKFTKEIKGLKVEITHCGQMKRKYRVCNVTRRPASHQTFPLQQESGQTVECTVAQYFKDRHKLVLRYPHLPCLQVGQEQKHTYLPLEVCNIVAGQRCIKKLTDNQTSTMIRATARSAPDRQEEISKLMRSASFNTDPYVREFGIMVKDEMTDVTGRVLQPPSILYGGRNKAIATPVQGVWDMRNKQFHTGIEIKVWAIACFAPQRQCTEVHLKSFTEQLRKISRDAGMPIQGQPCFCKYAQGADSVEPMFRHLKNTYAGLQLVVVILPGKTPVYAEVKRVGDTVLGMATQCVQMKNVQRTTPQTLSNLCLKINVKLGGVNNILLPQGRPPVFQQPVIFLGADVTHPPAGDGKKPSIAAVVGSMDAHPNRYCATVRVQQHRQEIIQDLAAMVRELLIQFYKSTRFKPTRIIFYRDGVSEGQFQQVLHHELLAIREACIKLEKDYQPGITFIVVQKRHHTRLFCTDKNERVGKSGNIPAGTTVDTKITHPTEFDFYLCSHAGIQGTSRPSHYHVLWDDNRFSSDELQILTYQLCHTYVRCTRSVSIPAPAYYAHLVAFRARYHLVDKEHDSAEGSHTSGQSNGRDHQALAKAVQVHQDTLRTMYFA

These are yes or no findings as the source states them, for the method shown. In cells and extracts the contact can be indirect. Some binding calls cover weakened binding; strength is not graded here.

The target in assay [1] is HA-ALKBH5 (full-length ALKBH5) (UniProt Q6P6C2). As to the kind of experiment: co-IP; HEK293T cells co-transfected with FLAG-DDX3 and HA-tagged constructs (cell line not named for the ALKBH5 deletion series); cells UV cross-linked, modified RIPA lysis buffer (150 mM NaCl, 50 mM Tris pH 8.0, 1% Nonidet P-40, 0.5% deoxycholate), sonicated; antibody on Dynabeads Protein G, 2 h at 4°C; Western blot; DDX3-ALKBH5 also with or without RNase A. (In western blotting, separated proteins are transferred to a membrane and probed.)

For assay [2], the target named is endogenous DDX3 (human (endogenous in HEK293T)) (UniProt O00571). The assay can be described thus: co-IP; endogenous proteins; IP with antibodies against DDX3 or AGO2 on Dynabeads Protein G, Western blot; HEK293T for DDX3-AGO2, cell line not stated for DDX3-ALKBH5.
Assay [3] addresses T1, DSBH domain of ALKBH5 alone (UniProt Q6P6C2).
T1 sequence: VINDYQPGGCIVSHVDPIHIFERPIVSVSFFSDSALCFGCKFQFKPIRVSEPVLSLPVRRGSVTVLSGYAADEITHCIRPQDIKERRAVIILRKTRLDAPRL
The assay can be described thus: co-IP; HEK293T cells co-transfected with FLAG-DDX3 and HA-tagged constructs (cell line not named for the ALKBH5 deletion series); cells UV cross-linked, modified RIPA lysis buffer (150 mM NaCl, 50 mM Tris pH 8.0, 1% Nonidet P-40, 0.5% deoxycholate), sonicated; antibody on Dynabeads Protein G, 2 h at 4°C; Western blot; DDX3-ALKBH5 also with or without RNase A.

The target in a further assay is T2, WTAP (UniProt Q15007).
T2 sequence: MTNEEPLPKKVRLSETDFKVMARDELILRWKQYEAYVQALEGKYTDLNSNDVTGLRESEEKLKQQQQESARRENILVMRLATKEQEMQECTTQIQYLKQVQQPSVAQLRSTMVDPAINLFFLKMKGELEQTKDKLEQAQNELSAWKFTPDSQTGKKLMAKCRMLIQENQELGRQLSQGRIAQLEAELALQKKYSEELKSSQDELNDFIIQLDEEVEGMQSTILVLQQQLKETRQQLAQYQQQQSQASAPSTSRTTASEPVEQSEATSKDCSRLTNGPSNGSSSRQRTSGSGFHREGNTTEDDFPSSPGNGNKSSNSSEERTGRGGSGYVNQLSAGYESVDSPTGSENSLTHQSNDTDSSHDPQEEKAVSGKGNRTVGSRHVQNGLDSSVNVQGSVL
The description is as above.

For another assay, the target named is T3, METTL14 (UniProt Q9HCE5).
T3 sequence: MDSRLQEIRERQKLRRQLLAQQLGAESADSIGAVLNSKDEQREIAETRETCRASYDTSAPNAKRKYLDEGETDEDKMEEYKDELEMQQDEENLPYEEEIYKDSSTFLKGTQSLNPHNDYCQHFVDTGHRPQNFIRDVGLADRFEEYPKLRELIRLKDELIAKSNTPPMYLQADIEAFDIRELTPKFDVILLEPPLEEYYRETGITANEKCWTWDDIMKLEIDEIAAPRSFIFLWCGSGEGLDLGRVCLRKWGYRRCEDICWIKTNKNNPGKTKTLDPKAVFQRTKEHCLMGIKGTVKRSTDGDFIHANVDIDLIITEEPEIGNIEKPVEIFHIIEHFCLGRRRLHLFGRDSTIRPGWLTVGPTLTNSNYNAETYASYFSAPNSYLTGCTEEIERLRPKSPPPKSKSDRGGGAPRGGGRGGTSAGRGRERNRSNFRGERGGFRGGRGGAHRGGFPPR
The description is as above.

Assay [4] addresses endogenous AGO2 (human (endogenous in HEK293T)) (UniProt Q9UKV8). The assay can be described thus: co-IP; endogenous proteins; IP with antibodies against DDX3 or AGO2 on Dynabeads Protein G, Western blot; HEK293T for DDX3-AGO2, cell line not stated for DDX3-ALKBH5.

“DDX3-ΔATP (from UniProt O00571 1-662) (domain or fragment)”: in assay [1], the binding entry is given as “no binding”.

In the case of “endogenous AGO2 (from UniProt Q9UKV8 1-859)”, the binding entry in assay [2] was “binds”.

As for “ATP-binding domain of DDX3 alone (from UniProt O00571 212-403) (domain or fragment)”, in assay [3], the binding entry is recorded as “binds”.

As to “FLAG-DDX3 (full-length DDX3) (from UniProt O00571 1-662)”, the binding result in the assay with WTAP is on record as “no binding”; in assay [1], “binds”; with METTL14 it was “no binding”.

In the case of “endogenous DDX3 (from UniProt O00571 1-662)”, the binding entry in assay [4] is reported as “binds”.
